Results from article PMC10726135.
The other results are listed elsewhere or left out. At the low end of the ranking the order means little. Measured with an extract: partners may take part in the binding.

biological target: T1, HNF4alpha2 (COS-7 nuclear extract) (UniProt P41235); test: protein-binding microarray; conditions: COS-7 nuclear extract on double-stranded Agilent 4x180k PBM; binding buffer, salt, pH and temperature not given; high values mean tight binding; double strand, one strand shown; sequences stand for … in …GCCTAGGGAGATTAGAGTATCGGTCGA
T1 sequence: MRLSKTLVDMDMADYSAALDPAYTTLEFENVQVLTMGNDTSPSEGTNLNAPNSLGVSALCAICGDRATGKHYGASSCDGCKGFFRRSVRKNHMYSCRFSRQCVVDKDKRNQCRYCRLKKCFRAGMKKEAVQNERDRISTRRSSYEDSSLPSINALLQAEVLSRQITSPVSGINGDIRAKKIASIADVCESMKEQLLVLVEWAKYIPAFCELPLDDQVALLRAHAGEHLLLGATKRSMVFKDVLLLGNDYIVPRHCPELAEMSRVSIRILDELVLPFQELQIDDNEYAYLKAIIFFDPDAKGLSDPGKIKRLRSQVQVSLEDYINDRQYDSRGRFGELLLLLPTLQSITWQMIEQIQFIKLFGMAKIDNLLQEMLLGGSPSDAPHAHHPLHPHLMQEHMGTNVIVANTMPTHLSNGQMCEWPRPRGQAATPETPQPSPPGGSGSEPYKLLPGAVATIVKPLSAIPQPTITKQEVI

Row | Sequence | binding signal (log2 normalized intensity)
1 | CTCTCTGAAATGAAGGTCAGCAAATTTGTT | 1.18
2 | CTTCGTCCTGAGCAGTCCCTTCCCCCCTCC | 5.36
3 | GCAGAAACCATCTGGCTTGGCCCCCGGACC | 3.35
4 | CTGCTCAAAGGGGAAAGAGGGGGAAGAGAT | -1.12
5 | CAGCAACACTCTACTACTTGACCTTTGAAA | 6.06
6 | TCTTAGGACCACATGAGTAAACAAGCTCTT | -1.07
7 | GCTTTTCCATTGACAGTCCAAGGACTCAAT | -1.12
8 | AAGAGATAGCGAGAAGGCAGGTAGAAGAAG | -1.14
9 | TTCCAGAAATCTGACCTCTGCCTCGGCCAC | 1.91
10 | GCTAAGATTGGACTCTGCACTCCAGCCTGG | 4.7
11 | AGAGATCAAAGGTGAGTGGGGAAAGAGCCC | 1.91
12 | CAGGGGTAAGTTTCTAACTACCATGAATTC | -0.788
13 | TCAGACCACCAGCTGCTTCGGCCAGCACAG | -1.2
14 | GATTTACATTGAGTTAACTATTGAGACTTT | 1.77
15 | ATCTTTCTGTCTCATTCCCTGACAGACCCC | 3.76
16 | ACTGCGGACATAGCTTGCCACAGCATGTTA | -1.19
17 | CCCACTAGGCCAGCCCGAGCGCGTCTGCCA | -1.23
18 | GCCCTCCTAGCAAACAATGAGGACGTGTGT | 0.801
19 | TTTAATGTATAAACCCTGAGGGTCAACACA | 1.11
20 | GGATGCCAAATTCCTCCCACTCTGACATCC | -0.153
21 | AAGAGCAAACAATCAGTGAAATGCCAGTGG | -1.12
22 | AGTGCTGTTTGCAAGGATTAAGTGAGATCA | 1.33
23 | AACAAACGACGCTCCTATCATCCCTATCAC | -1.15
24 | AGAGTAGCTCCAAAAGGTGGACAAGACTGG | -1.07
25 | GGCAGGACAGCAGGAGTGGGAGAAAGCTTT | -1.07

Row | Sequence | binding signal (log2 normalized intensity)
26 | CCCCATGATGATAGCAAACACGATTGGATG | 0.412
27 | CATTCACATGACCTTTGTCCGTTCCTGCCT | 5.92
28 | GCAGGGAGAGTTGCACCCAGGCCGTTGGAC | -0.957
29 | AATCCCATGCTGATGGCAAACACCTGGCCA | -1.2
30 | GCTGTCTACTCTGGGGGTCAGCAATGGTAA | 1.8
31 | CTGGTGCCTCCTTATCTCCCCAACTGTAAA | 3.35
32 | CACAAAAGCTGCTGCCAAGCGTCAGTCATA | -1.09
33 | ACGCTTGACTGGCTCCACCACTTTGCCTAT | -1.11
34 | GGACAGGCCAAATCCAGTAAGGCACGGAGT | -1.1
35 | ATCTGAAGGAAATGGACAACGGAAAGACAG | -1.17
36 | CTTGCATTTCTTCAGATGCAACACAGGGGG | -0.842
37 | AAGAGGCTCTTCAATGCATTCCTGAAGCCT | -1.17
38 | CCCTTTGGTCTGGAACACAGAGGGAAATGC | -0.845
39 | GCCCAAAGGTCAGTCTGCAGCTAATAAACT | 2.21
40 | ATAAGATGTGTAAAACACAAATCTCCACAA | -1.18
41 | GGACTTTGCTCTGCTCATTTTTCCCCTGAC | 4.59
42 | CCCCCAGTGGAATGTGCCCTTTGACCTCTC | 9.72
43 | CAGTGCTGCCATTTGAGGAGTGTTGAGATT | 1.3
44 | TCACAGTGCCTCTGCAAGTTGGCCTTACTA | -0.392
45 | ACGGTGTCCCTGGCCAATCCCAGGGTCAGA | 1.03
46 | GCTAGAGGCCCTGCATTAAACAAGAGAGAG | -1.02
47 | CACCTTTTTTGGCCTTTACCCCTTGAGTTT | 3.93
48 | TAAATGCAGTTTGTCAAGTGCCCGGATAAA | 1.35
49 | TGGTATGTTTGGATTGGGCAATGACCTGGA | 2.18
50 | AAAAGGGACAAAGGTGAGTGCAACCTTCTC | 1.95

Row | Sequence | binding signal (log2 normalized intensity)
51 | CCATTGTAGATTCAATAATACAAGAGGCTT | -0.887
52 | TGTGTGCCTGAGAATGAGGGGCAGGCTTAG | -0.815
53 | AGGCTAGAATGGAAACCAATAACTGCTTCT | -1.13
54 | GAGAGTACACAGAAGTTAATTTCAAAACAA | -1.2
55 | ACAGACATAAACACAGACACACATGAGCTA | -1.19
56 | ATTGACCACCTCCTCTGAAGCTAGGACAAG | -1.06
57 | AGAAAAATATGTGGACTTCAAAGGTACTTA | 0.694
58 | GTTTTCTGTCTTCATCCTGAGAGGGCTCAA | 0.762
59 | GAGGAAAACTGGGCAAAGGTCAGGATCTCA | 4.49
60 | CTGCAGAGGCTGGTTCACACCCCACGTACA | 1.79
61 | GATTCCAGCTCTCGGATCCTCTGGGCTGGC | -1.08
62 | CAAAGTCCACCTCAACCTCCCCCTGGGGAC | 3.52
63 | AGGAGCGAGTCAAGGGTCAATCCTCTCTTT | 2.44
64 | ACCCCTAATGAATGGCAAATTAAACAGCAT | -0.91
65 | GACTTTGGTTGGATTTCTTGGCTTCTCTTG | 1.04
66 | GAAGACACAAAGCTTGGGTTCACATTCCAG | 0.811
67 | TGTGAATCTCCTGCTTTTGGAAAACTGGCC | -0.0827
68 | GCTCAGAGGCACAGTCTGCTTTCAGAGATG | -1.08
69 | AGGGGCATCCTCATTGCCTCTGGGCTTTGA | -0.381
70 | GAACAGATATTGGCCAAAGGGCACAAGAGG | 1.49
71 | GGCAGCCAGCGCAGGGGCTTCTGCTGAGGG | -1.14
72 | TGTGTCTCCAGGAGCAATCATCGCACCTAA | -1.15
73 | TCAAGGTTTCTTTCCCTGGGGTCAATAGTT | 3.59
